Experimental findings from the BET-seq Pho4 binding data (Le et al. 2018) are described below.

Some of the results follow. These are noisy estimates, calculated here from bound and input reads.

This test concerns the target T1, Pho4 (S. cerevisiae) (UniProt P07270).
T1 sequence: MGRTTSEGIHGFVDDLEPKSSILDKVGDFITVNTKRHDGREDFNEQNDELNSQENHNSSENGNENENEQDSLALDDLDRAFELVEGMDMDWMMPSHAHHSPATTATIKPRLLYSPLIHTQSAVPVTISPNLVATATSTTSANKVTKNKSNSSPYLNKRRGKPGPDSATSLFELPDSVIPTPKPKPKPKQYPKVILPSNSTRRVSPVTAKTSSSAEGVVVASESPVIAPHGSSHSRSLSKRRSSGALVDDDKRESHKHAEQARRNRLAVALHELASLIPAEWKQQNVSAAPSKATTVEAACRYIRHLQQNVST
The test is described as follows: relative binding free energy (BET-seq); higher = weaker binding. The following applies: reference: library average.
For TCGTTCACGTGAGGGC, the “relative binding free energy” value is 0.42 kcal/mol. With TATTACACGTGTGGCT the figure was 0.24 kcal/mol; with GGCATCACGTGAAGTT, 0.47 kcal/mol; with AATTACACGTGTAATT, 0.33 kcal/mol. As for GAGAACACGTGTGCGT, the figure is 0.06 kcal/mol; as for CGGGTCACGTGGAGAA, 0.16 kcal/mol; as for CGTAGCACGTGAGGGA, 0.12 kcal/mol. With TTGGGCACGTGGACTT the figure was 0.01 kcal/mol; with GTATGCACGTGGGATC, -0.03 kcal/mol. Consider AATATCACGTGTGATA, for which the “relative binding free energy” value was 0.3 kcal/mol. With AGCTTCACGTGTTAGG the figure was 0.16 kcal/mol. As for AGTTTCACGTGAATGG, the figure is 0.35 kcal/mol; as for GTTGGCACGTGGCGTC, -0.18 kcal/mol; as for ACTGGCACGTGGCTGT, -0.2 kcal/mol. Regarding ACTGGCACGTGGGGGA, the “relative binding free energy” value is -0.34 kcal/mol.

As for GATGTCACGTGCTTTG, the “relative binding free energy” value turned out to be 0 kcal/mol. As for AGCGACACGTGTTGTA, the figure is 0.02 kcal/mol; as for CGGGACACGTGTATTT, 0.15 kcal/mol; as for GGCAGCACGTGGGAGT, -0.12 kcal/mol.

Consider GCCAGCACGTGGTGGT, for which the “relative binding free energy” value was -0.12 kcal/mol. With GAGGGCACGTGACGGA the figure was 0.04 kcal/mol. As for TATCGCACGTGTTGCT, the figure is -0.04 kcal/mol; as for TAGGACACGTGGCTTA, 0.19 kcal/mol. As for ATAAGCACGTGGGGTT, the figure is -0.26 kcal/mol. As for GCGCACACGTGAGGGT, the “relative binding free energy” value worked out at 0.39 kcal/mol.

Consider AGGTGCACGTGATTTT, for which the “relative binding free energy” value stood at 0.07 kcal/mol.

Consider TCTATCACGTGGGATA, for which the “relative binding free energy” value worked out at 0.22 kcal/mol. With TGAGACACGTGGTAGA the figure was -0.05 kcal/mol; with CATTGCACGTGGATTG, -0.01 kcal/mol. With AAGCTCACGTGGTGAT the figure was 0.33 kcal/mol; with TGTAACACGTGTATGG, -0.13 kcal/mol; with TGTTTCACGTGCTTAA, 0.19 kcal/mol. Turning to TGATGCACGTGTGTGA, the “relative binding free energy” value is -0.14 kcal/mol.

As for TTAGCCACGTGAATGG, the “relative binding free energy” value was 0.1 kcal/mol.

For AAAGGCACGTGACGTG, the “relative binding free energy” value is -0.09 kcal/mol. As for TAAGACACGTGTGGTA, the figure is 0.07 kcal/mol; as for GGTTGCACGTGGGGTG, -0.05 kcal/mol. For ATTGGCACGTGTTCTG, the “relative binding free energy” value is -0.26 kcal/mol. With CCTAGCACGTGGGTGC the figure was 0.07 kcal/mol; with TTGGTCACGTGCAGGA, 0.1 kcal/mol. With GCGTTCACGTGTATTG the figure was 0.2 kcal/mol; with GTATGCACGTGTTCAT, 0 kcal/mol; with GGCAGCACGTGTATGT, -0.01 kcal/mol. With TATTTCACGTGCTGTT the figure was 0.21 kcal/mol; with ATTTCCACGTGGTAAG, 0.2 kcal/mol; with TGGTGCACGTGTTGCG, -0.03 kcal/mol. Take CTCGTCACGTGCTGGT: the “relative binding free energy” value was 0.08 kcal/mol. With GGTTTCACGTGATGTG the figure was 0.41 kcal/mol; with GTTCGCACGTGATGGC, 0.1 kcal/mol; with GGCAGCACGTGCGGGA, -0.14 kcal/mol. On to TGCATCACGTGCGTGT, for which the “relative binding free energy” value came to 0.07 kcal/mol.

For CGGTTCACGTGATAAT, the “relative binding free energy” value was found to be 0.43 kcal/mol. With TGTGGCACGTGCAATA the figure was -0.14 kcal/mol; with TAACGCACGTGTGTTA, -0.08 kcal/mol; with ACAGTCACGTGGGTTT, -0.1 kcal/mol. Take TTAAGCACGTGCGGAT: the “relative binding free energy” value was -0.01 kcal/mol. As for ATATTCACGTGTATAG, the figure is 0.24 kcal/mol; as for TAGTACACGTGTTTAC, 0.19 kcal/mol; as for GATTTCACGTGATGGA, 0.37 kcal/mol. As for GAGATCACGTGGCAGG, the figure is 0.23 kcal/mol; as for TAGGCCACGTGGATGG, 0.04 kcal/mol.

For GTAGACACGTGGGGTA, the “relative binding free energy” value is -0.04 kcal/mol. With CGGTTCACGTGATGGA the figure was 0.29 kcal/mol; with TCCGGCACGTGGTGGG, -0.16 kcal/mol. As for TAAGTCACGTGTCGTG, the figure is -0.04 kcal/mol; as for GGGTACACGTGGAGGT, 0.01 kcal/mol. As for GAGAGCACGTGATAGG, the figure is -0.01 kcal/mol; as for AAGTACACGTGTTTAG, 0.2 kcal/mol; as for GGTCGCACGTGAAGTT, 0.35 kcal/mol. As for GGGGTCACGTGCATAT, the “relative binding free energy” value amounted to 0.05 kcal/mol. As for TTGATCACGTGGGTAG, the figure is 0.05 kcal/mol; as for CTATTCACGTGGATAG, 0.26 kcal/mol; as for TTAGACACGTGAGTTG, 0.25 kcal/mol. As for CTGGGCACGTGAGTAT, the figure is 0.13 kcal/mol; as for ACAGTCACGTGGGTAT, -0.05 kcal/mol. As for CGGTGCACGTGGTAGG, the figure is -0.02 kcal/mol; as for CCGGTCACGTGGGTTA, 0.06 kcal/mol.

In the case of GTTGACACGTGAAGGA, the “relative binding free energy” value worked out at 0.26 kcal/mol. As for ATATTCACGTGGCATT, the figure is 0.2 kcal/mol. As for TTGTGCACGTGACGAG, the figure is 0.06 kcal/mol. As for CTAAACACGTGTTGTT, the figure is -0.06 kcal/mol; as for GGTGTCACGTGAGGCC, 0.25 kcal/mol. Take GGAGACACGTGGTCTG: the “relative binding free energy” value is -0.05 kcal/mol. With TTTGTCACGTGATACG the figure was 0.16 kcal/mol; with GGGTGCACGTGCTTAG, -0.18 kcal/mol; with ATTTACACGTGGTTCA, 0.04 kcal/mol. As for ATTCGCACGTGGGGAT, the figure is -0.22 kcal/mol; as for TCGGTCACGTGGAGTA, -0.02 kcal/mol.

As for AGTTCCACGTGATGGA, the “relative binding free energy” value amounted to 0.21 kcal/mol. With ATTGCCACGTGTGGCG the figure was 0.04 kcal/mol. As for TAGATCACGTGATTCG, the figure is 0.4 kcal/mol; as for ATAAGCACGTGGTTGG, -0.27 kcal/mol. With GTATGCACGTGAGAAT the figure was 0.26 kcal/mol; with AGGTGCACGTGGAATG, 0.01 kcal/mol; with GGTTTCACGTGATTCG, 0.31 kcal/mol. With ATTTACACGTGTAAGG, the “relative binding free energy” value worked out at 0.15 kcal/mol. With CGTGACACGTGTATTT the figure was 0.14 kcal/mol; with TGACACACGTGAATTT, 0.38 kcal/mol. As to ACAGTCACGTGAGGGG, the “relative binding free energy” value is 0.23 kcal/mol. As for ATATGCACGTGATAAG, the figure is 0.02 kcal/mol; as for AATTGCACGTGGTTAT, 0.06 kcal/mol. With CAGAGCACGTGTGTGG the figure was -0.1 kcal/mol. As for TAATTCACGTGTTATC, the figure is 0.25 kcal/mol. In the case of TCAGGCACGTGGGTTG, the “relative binding free energy” value was -0.04 kcal/mol. As for CAGTTCACGTGGTAGG, the figure is 0.24 kcal/mol; as for TGTGTCACGTGATAGC, 0.26 kcal/mol; as for TGGTTCACGTGCGTTA, 0.26 kcal/mol. Take TAGGCCACGTGGGTGG: the “relative binding free energy” value was -0.4 kcal/mol. As for GCTTTCACGTGCAGGG, the figure is 0.2 kcal/mol; as for CGGATCACGTGGTAGG, 0.19 kcal/mol; as for CTGTACACGTGTTTGA, 0.06 kcal/mol. TAATACACGTGTGAAG: the “relative binding free energy” value was determined as 0.22 kcal/mol. Consider ATGTGCACGTGCGGGT, for which the “relative binding free energy” value is -0.11 kcal/mol. As for CGTGTCACGTGTGATT, the figure is 0.14 kcal/mol; as for AATTACACGTGAATTT, 0.41 kcal/mol.
